In PubChem BioAssay AID1347071 (National Center for Advancing Translational Sciences (NCATS), 2019):
The whole screen tested about 410,000 compounds, of which about 260 (0.063%) were called active. Inconclusive results, whose numbers are uncertain, are shown with a selection of clear calls. Calls follow the shape of the dose curve; as a rule, active = well fitted activation curve with a large enough effect; inconclusive = small, poorly fitted or top-dose-only effect; inactive = no such curve, though single readings can be large or run the other way. Potencies of inconclusive entries are left out as doubtful fits.

Assay: qHTS for compounds that reverse cellular toxicity of Amyloid beta (A-beta) peptide in yeast: Primary Screen; also: nearly all actives have a fitted effect of over 55% in size
Conditions: yeast expressing A-beta42, growth rescue, OD600, 48 h; growth rescue: at 46.1 µM (top of the series), 0% DMSO, 100% iron-clioquinol control
In short: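 Yeast growth medium received pinned compounds, then yeast cells expressing toxic A-beta were added; plates incubated at 30 C for 48 hr. Growth read as absorbance at 600 nm, normalized to DMSO and equimolar FeCl3 plus clioquinol controls.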
Potency is read from the fitted curve at half-maximal effect; tags tell the direction and shape of the fitted curve.

Row | Structure (SMILES) | Potency
1 | C=CCNC(=S)N/N=C/c1cn(C)c2ccccc12 | inconclusive [activator, partial curve, poor fit]
2 | Cc1cccc(/C(N)=N/OC(=O)c2ccc(Br)o2)c1 | inactive
3 | O=C(Nc1nc2ccccc2s1)C1CCN(S(=O)(=O)c2cc([N+](=O)[O-])ccc2Cl)CC1 | inconclusive [activator, partial curve, poor fit]
4 | COc1ccc(CCC(C)NC(=O)CCc2ccccc2)c(OC)c1 (stereo not drawn) | inconclusive [activator, full curve]
5 | O=c1c2ccccc2nnn1Cc1ccccc1Cl | inconclusive [activator, partial curve, poor fit]
6 | COc1ccc(S(=O)(=O)N2CCCCC2)cc1NC(=S)Nc1ccccc1 | inactive
7 | COc1ccccc1N1CCN(C(=O)c2cc3ccccc3[nH]2)CC1 | inconclusive [activator, full curve, poor fit]
8 | CCCOc1ccc(NC(=O)CC2C(=O)N(Cc3ccccc3)C(=S)N2Cc2cccs2)cc1 (stereo not drawn) | inconclusive [activator, partial curve, poor fit]
9 | CNC(=S)NNC(=O)c1sccc1OCc1ccc(C)cc1 | inconclusive [activator, full curve, poor fit]
10 | O=C(CCc1ccccc1)NNc1cc(N2CCCCC2)nc(N2CCCCC2)n1 | inactive
11 | Cc1c(C(=O)NCc2cccc(C(F)(F)F)c2)sc(=O)n1Cc1ccc(F)cc1 | inconclusive [activator, single point]
12 | COc1ccc(N2CCN(C(=S)NC(=O)c3cccs3)CC2)c([N+](=O)[O-])c1 | inconclusive [activator, partial curve, poor fit]
13 | COc1ccc(CCNC(=O)Cn2cc(S(=O)(=O)Cc3cccc(Cl)c3)c3ccccc32)cc1OC | inactive
14 | O=C1CC(N2CCN(S(=O)(=O)c3cccc(C(F)(F)F)c3)CC2)C(=O)N1Cc1ccccc1 (stereo not drawn) | inconclusive [activator, single point]
15 | C=CCn1c(CCc2ccc(OC(C)C)cc2)n[nH]c1=S | inconclusive [activator, single point]
16 | Cc1ccc(NC(=S)NNc2ncc(C(F)(F)F)cc2Cl)cc1 | inactive
17 | COC(=O)c1ccccc1NC(=O)c1cc[n+](C)cc1 | inconclusive [activator, single point]
18 | CCOc1ccc2c(c1)[nH]c(=S)n2C | inconclusive [activator, single point]
